± gives the standard error. Variants at the floor of the assay are shown more often than the library holds them.
B1: glmS ribozyme (parent)
chain: AUAAAAGCGCCAGAACUACAGAAAUGUAGUUGACGAGGAGGAGGUUUAUCGAAUUUUCGGCGGAUGCCUCCAAA

Experiments:
Conditions in all cases: with glucosamine-6-phosphate
glucosamine-6-phosphate [1] = variants of: B1; assay: self-cleavage kobs at 640 uM GlcN6P; higher = faster cleavage; RNA array
How it was run: (§1)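 In situ transcription by E. coli RNA polymerase produced barcoded ribozyme variants on sequenced MiSeq chips, and a hybridised Cy3 probe tracked them at 37 °C. Glucosamine-6-phosphate was flowed in at 40 μM to 10 mM in HEPES/KCl/Mg(OAc)2 buffer. kcat and KM were taken from weighted Michaelis–Menten fits of kobs values from exponential decay fits.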

glucosamine-6-phosphate [2] = variants of: B1; assay: self-cleavage kobs at 160 uM GlcN6P; higher = faster cleavage; RNA array
How it was run: as §1

glucosamine-6-phosphate [3] = variants of: B1; assay: self-cleavage kobs at 2500 uM GlcN6P; higher = faster cleavage; RNA array
How it was run: as §1

glucosamine-6-phosphate [4] = variants of: B1; assay: self-cleavage kobs at 10000 uM GlcN6P; higher = faster cleavage; RNA array
How it was run: as §1

Variant	self-cleavage kobs at 640 uM GlcN6P (glucosamine-6-phosphate [1])	self-cleavage kobs at 160 uM GlcN6P (glucosamine-6-phosphate [2])	self-cleavage kobs at 2500 uM GlcN6P (glucosamine-6-phosphate [3])	self-cleavage kobs at 10000 uM GlcN6P (glucosamine-6-phosphate [4])
G13U G29U G37U	< 1e-05 s⁻¹			
A14C G32U A52C	< 1e-05 s⁻¹	< 1e-05 s⁻¹	< 1e-05 s⁻¹	
A14C U65A C70U	0.000125 ± 3.2e-05 s⁻¹			
C16G A33U G37U C68G C71U	8.54e-05 ± 3.1e-05 s⁻¹			
C16G A42C A53U	< 1e-05 s⁻¹	< 1e-05 s⁻¹		
G13C U57C C58A	< 1e-05 s⁻¹			
A14C C50A A52G G63U	< 1e-05 s⁻¹			
A14G U56G U57C	5.18e-05 ± 1.5e-05 s⁻¹	3.78e-05 ± 1.6e-05 s⁻¹	0.000269 ± 8.2e-05 s⁻¹	
A15C G35A G41C G60A G62C	< 1e-05 s⁻¹		< 1e-05 s⁻¹	
C16A A36G G63U	< 1e-05 s⁻¹	< 1e-05 s⁻¹	< 1e-05 s⁻¹	
A14C G38C U46G U47G G51U	< 1e-05 s⁻¹			
A14G A33C A36G G66A	< 1e-05 s⁻¹	< 1e-05 s⁻¹		
A15C U30A C67A	0.000357 ± 8.3e-05 s⁻¹	0.000277 ± 6.8e-05 s⁻¹	0.0013 ± 0.0005 s⁻¹	
C16G U31C	8.88e-05 ± 1.7e-05 s⁻¹		0.000269 ± 4.6e-05 s⁻¹	0.000401 ± 0.00011 s⁻¹
A15G A36C G41C U47G	< 1e-05 s⁻¹	< 1e-05 s⁻¹	< 1e-05 s⁻¹	
A14C C50U U57C G59C	< 1e-05 s⁻¹	< 1e-05 s⁻¹	< 1e-05 s⁻¹	
A14G G41U G51U	< 1e-05 s⁻¹	< 1e-05 s⁻¹	< 1e-05 s⁻¹	
C16G G59A	< 1e-05 s⁻¹			
A15G U45C U57C	< 1e-05 s⁻¹			
A15C C70G C71A	6.35e-05 ± 1.7e-05 s⁻¹	4.75e-05 ± 2e-05 s⁻¹		
A15U C68G C70A	< 1e-05 s⁻¹			< 1e-05 s⁻¹

Variant	self-cleavage kobs at 640 uM GlcN6P (glucosamine-6-phosphate [1])	self-cleavage kobs at 160 uM GlcN6P (glucosamine-6-phosphate [2])	self-cleavage kobs at 2500 uM GlcN6P (glucosamine-6-phosphate [3])	self-cleavage kobs at 10000 uM GlcN6P (glucosamine-6-phosphate [4])
C16U G32C G35A C68A	< 1e-05 s⁻¹		< 1e-05 s⁻¹	
A15G G51C	< 1e-05 s⁻¹	< 1e-05 s⁻¹	< 1e-05 s⁻¹	< 1e-05 s⁻¹
A14C G37U A39U	< 1e-05 s⁻¹			
A15U G63C	< 1e-05 s⁻¹	< 1e-05 s⁻¹	< 1e-05 s⁻¹	< 1e-05 s⁻¹
A14G C34G G38U G60A G66A	< 1e-05 s⁻¹			
C16A G32U G41U U55G U65G	< 1e-05 s⁻¹		< 1e-05 s⁻¹	
C16A G43A C61A	< 1e-05 s⁻¹			
G13C G35A U55C C68U	< 1e-05 s⁻¹			
A14C G35C A39G	< 1e-05 s⁻¹			
A14G G29A G51U A52C	< 1e-05 s⁻¹			
A15C U30C U31G U69G	0.00017 ± 4.8e-05 s⁻¹			
A15C A33C A53C	< 1e-05 s⁻¹			< 1e-05 s⁻¹
G13U A64U C70G	< 1e-05 s⁻¹			
C16A U54A C67A	6.57e-05 ± 2.8e-05 s⁻¹	4.32e-05 ± 1.9e-05 s⁻¹	0.000181 ± 4.8e-05 s⁻¹	
A14G G29A G37U	< 1e-05 s⁻¹			
A14G G44C U56G A64G U65G	< 1e-05 s⁻¹	< 1e-05 s⁻¹		
C16G A52G C58G	< 1e-05 s⁻¹			
G13U G29C A33C A39G U46C	< 1e-05 s⁻¹		< 1e-05 s⁻¹	
A15G C16U U31G G32A G38U C68A	< 1e-05 s⁻¹	< 1e-05 s⁻¹	< 1e-05 s⁻¹	
A14C G62U	< 1e-05 s⁻¹	< 1e-05 s⁻¹	< 1e-05 s⁻¹	< 1e-05 s⁻¹
A14C A42C U55C U57A	< 1e-05 s⁻¹			

Variant	self-cleavage kobs at 640 uM GlcN6P (glucosamine-6-phosphate [1])	self-cleavage kobs at 160 uM GlcN6P (glucosamine-6-phosphate [2])	self-cleavage kobs at 2500 uM GlcN6P (glucosamine-6-phosphate [3])	self-cleavage kobs at 10000 uM GlcN6P (glucosamine-6-phosphate [4])
A15C A36C G41U	< 1e-05 s⁻¹			
A15C G32C	3.08e-05 ± 1e-05 s⁻¹		7.51e-05 ± 2e-05 s⁻¹	0.000138 ± 1.7e-05 s⁻¹
C16A U30A A33G	< 1e-05 s⁻¹			
A15C G40C	0.000109 ± 9.3e-06 s⁻¹	5.62e-05 ± 7.5e-06 s⁻¹	0.000234 ± 2.4e-05 s⁻¹	0.000343 ± 3.9e-05 s⁻¹
A15U G32A U46G C50G	8.2e-05 ± 2.3e-05 s⁻¹			
A14U A15U C68U	8.97e-05 ± 2.4e-05 s⁻¹			
A14G A15U A48U U69C	6.32e-05 ± 2.6e-05 s⁻¹			7.49e-05 ± 2e-05 s⁻¹
G13C U49A U56G G59U G63U	< 1e-05 s⁻¹		< 1e-05 s⁻¹	
A15U U54A	0.00262 ± 0.00048 s⁻¹	0.00059 ± 0.00026 s⁻¹	0.00516 ± 0.0014 s⁻¹	
C16G G29U G44U C61G	< 1e-05 s⁻¹		< 1e-05 s⁻¹	
A14U G32C G62U	< 1e-05 s⁻¹			
C16U U31G C34U	< 1e-05 s⁻¹			
A15G G29U G41U G51A C70G	< 1e-05 s⁻¹		< 1e-05 s⁻¹	
C16U C34G G41U	< 1e-05 s⁻¹			
G13U A42U U46G G51A	< 1e-05 s⁻¹		< 1e-05 s⁻¹	
A15G A42C C61U	< 1e-05 s⁻¹			
A15U G43A G59C	< 1e-05 s⁻¹		< 1e-05 s⁻¹	< 1e-05 s⁻¹
A15G A36U U45G U46G A64G	< 1e-05 s⁻¹			
A14G G29C A42C C71G	< 1e-05 s⁻¹	< 1e-05 s⁻¹	< 1e-05 s⁻¹	

From the supplement of paper PMC7125110
